The supplement of paper PMC10369915
The other results are listed elsewhere or left out. Rule as the data show it: active = 3.2 or more and inactive = the rest. Only a few entries rise above the background.

target: SHP2 C-SH2 domain E139D; experiment: enrichment score (SH2-bound / input frequency) (ratio); bacterial display of known human phosphotyrosine sites (pTyr-Var adds point mutants) read by sequencing; higher = stronger binding; tyrosines were phosphorylated by kinases first; settings: peptide library: Human pTyr
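Also: displayed peptides selected on beads carrying the immobilized SH2 domain, with library peptides lacking any tyrosine serving as negative controls.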

Enrichment score, inactive:
GDCCAEEYKDRKREN [KCND3_HUMAN_136_YA] 0.748
DIYRASYYRKGGCAM [ALK_HUMAN_1283] 1.18
YMTQEGEYLPLDQRD [KCNJ4_HUMAN_234] 0.646
KRKRLSDYALIFGMF [KCNN1_HUMAN_109] 0.876
GDDLDPNYVLSSRVR [KCRB_HUMAN_125] 0.643
ANLSEDEYASEEERN [KDM1A_HUMAN_135_YA] 1.27
DIARASAYRKGGCAM [ALK_HUMAN_1283_YA] 1.21
YEGYEGYYSQSQGDS [KHDR1_HUMAN_387] 1.49
AEGAEGAYSQSQGDS [KHDR1_HUMAN_387_YA] 0.762
GAAREHPYGRAGGGG [KHDR1_HUMAN_440_YA] 1.24
GFGDRNEYGSRIGGG [KHSRP_HUMAN_317] 0.633
AARQQAAYAGQTPGP [KHSRP_HUMAN_688_YA] 0.478
MKDPTNGYYNVRAHE [KIRR1_HUMAN_605] 1.31
KDPTNGAYNVRAHED [KIRR1_HUMAN_606_YA] 0.775
VMILTYKYLQKPMYE [KIT_HUMAN_547] 1.99
TAPGAGHYEDTILKS [ALK_HUMAN_1604] 0.714
KYLQKPMYEVQWKVV [KIT_HUMAN_553] 1.78
DMKPGVSYVVPTKAD [KIT_HUMAN_730] 0.91

target: SHP2 C-SH2 domain wild-type; experiment: as above; settings: peptide library: Human pTyr

Enrichment score, inactive:
GDCCAEEYKDRKREN [KCND3_HUMAN_136_YA] 0.711
DIYRASYYRKGGCAM [ALK_HUMAN_1283] 1.09
YMTQEGEYLPLDQRD [KCNJ4_HUMAN_234] 0.548
KRKRLSDYALIFGMF [KCNN1_HUMAN_109] 0.877
GDDLDPNYVLSSRVR [KCRB_HUMAN_125] 0.622
ANLSEDEYASEEERN [KDM1A_HUMAN_135_YA] 1.1
DIARASAYRKGGCAM [ALK_HUMAN_1283_YA] 1.03
YEGYEGYYSQSQGDS [KHDR1_HUMAN_387] 1.01
AEGAEGAYSQSQGDS [KHDR1_HUMAN_387_YA] 0.612
GAAREHPYGRAGGGG [KHDR1_HUMAN_440_YA] 1.18
GFGDRNEYGSRIGGG [KHSRP_HUMAN_317] 0.498
AARQQAAYAGQTPGP [KHSRP_HUMAN_688_YA] 0.489
MKDPTNGYYNVRAHE [KIRR1_HUMAN_605] 1.17
KDPTNGAYNVRAHED [KIRR1_HUMAN_606_YA] 0.753
VMILTYKYLQKPMYE [KIT_HUMAN_547] 1.9
TAPGAGHYEDTILKS [ALK_HUMAN_1604] 0.608
KYLQKPMYEVQWKVV [KIT_HUMAN_553] 1.91
DMKPGVSYVVPTKAD [KIT_HUMAN_730] 0.782

target: SHP2 N-SH2 domain L43F; experiment: as above; settings: peptide library: Human pTyr

Enrichment score, inactive:
GDCCAEEYKDRKREN [KCND3_HUMAN_136_YA] 0.651
DIYRASYYRKGGCAM [ALK_HUMAN_1283] 0.888
YMTQEGEYLPLDQRD [KCNJ4_HUMAN_234] 0.503
KRKRLSDYALIFGMF [KCNN1_HUMAN_109] 0.697
GDDLDPNYVLSSRVR [KCRB_HUMAN_125] 0.585
ANLSEDEYASEEERN [KDM1A_HUMAN_135_YA] 1.24
DIARASAYRKGGCAM [ALK_HUMAN_1283_YA] 0.992
YEGYEGYYSQSQGDS [KHDR1_HUMAN_387] 0.597
AEGAEGAYSQSQGDS [KHDR1_HUMAN_387_YA] 0.62
GAAREHPYGRAGGGG [KHDR1_HUMAN_440_YA] 1.05
GFGDRNEYGSRIGGG [KHSRP_HUMAN_317] 0.595
AARQQAAYAGQTPGP [KHSRP_HUMAN_688_YA] 0.439
MKDPTNGYYNVRAHE [KIRR1_HUMAN_605] 1.15
KDPTNGAYNVRAHED [KIRR1_HUMAN_606_YA] 0.643
VMILTYKYLQKPMYE [KIT_HUMAN_547] 1.74
TAPGAGHYEDTILKS [ALK_HUMAN_1604] 0.62
KYLQKPMYEVQWKVV [KIT_HUMAN_553] 1.6
DMKPGVSYVVPTKAD [KIT_HUMAN_730] 0.636

target: SHP2 N-SH2 domain T42A; experiment: as above; settings: peptide library: Human pTyr

Enrichment score, inactive:
GDCCAEEYKDRKREN [KCND3_HUMAN_136_YA] 0.625
DIYRASYYRKGGCAM [ALK_HUMAN_1283] 1.08
YMTQEGEYLPLDQRD [KCNJ4_HUMAN_234] 0.719
KRKRLSDYALIFGMF [KCNN1_HUMAN_109] 0.658
GDDLDPNYVLSSRVR [KCRB_HUMAN_125] 0.522
ANLSEDEYASEEERN [KDM1A_HUMAN_135_YA] 1.18
DIARASAYRKGGCAM [ALK_HUMAN_1283_YA] 1.03
YEGYEGYYSQSQGDS [KHDR1_HUMAN_387] 0.813
AEGAEGAYSQSQGDS [KHDR1_HUMAN_387_YA] 0.622
GAAREHPYGRAGGGG [KHDR1_HUMAN_440_YA] 1.08
GFGDRNEYGSRIGGG [KHSRP_HUMAN_317] 0.645
AARQQAAYAGQTPGP [KHSRP_HUMAN_688_YA] 0.545
MKDPTNGYYNVRAHE [KIRR1_HUMAN_605] 1.21
KDPTNGAYNVRAHED [KIRR1_HUMAN_606_YA] 0.752
VMILTYKYLQKPMYE [KIT_HUMAN_547] 1.73
TAPGAGHYEDTILKS [ALK_HUMAN_1604] 0.588
KYLQKPMYEVQWKVV [KIT_HUMAN_553] 1.45
DMKPGVSYVVPTKAD [KIT_HUMAN_730] 0.75

target: SHP2 N-SH2 domain T52S; experiment: as above; settings: peptide library: Human pTyr

Enrichment score, inactive:
GDCCAEEYKDRKREN [KCND3_HUMAN_136_YA] 0.881
DIYRASYYRKGGCAM [ALK_HUMAN_1283] 1.15
YMTQEGEYLPLDQRD [KCNJ4_HUMAN_234] 0.567
KRKRLSDYALIFGMF [KCNN1_HUMAN_109] 0.778
GDDLDPNYVLSSRVR [KCRB_HUMAN_125] 0.681
ANLSEDEYASEEERN [KDM1A_HUMAN_135_YA] 1.32
DIARASAYRKGGCAM [ALK_HUMAN_1283_YA] 1.26
YEGYEGYYSQSQGDS [KHDR1_HUMAN_387] 0.772
AEGAEGAYSQSQGDS [KHDR1_HUMAN_387_YA] 0.626
GAAREHPYGRAGGGG [KHDR1_HUMAN_440_YA] 1.01
GFGDRNEYGSRIGGG [KHSRP_HUMAN_317] 0.58
AARQQAAYAGQTPGP [KHSRP_HUMAN_688_YA] 0.55
MKDPTNGYYNVRAHE [KIRR1_HUMAN_605] 1.35
KDPTNGAYNVRAHED [KIRR1_HUMAN_606_YA] 0.782
VMILTYKYLQKPMYE [KIT_HUMAN_547] 1.69
TAPGAGHYEDTILKS [ALK_HUMAN_1604] 0.706
KYLQKPMYEVQWKVV [KIT_HUMAN_553] 1.84
DMKPGVSYVVPTKAD [KIT_HUMAN_730] 0.592

target: SHP2 N-SH2 domain wild-type; experiment: as above; settings: peptide library: Human pTyr

Enrichment score, inactive:
GDCCAEEYKDRKREN [KCND3_HUMAN_136_YA] 0.6
DIYRASYYRKGGCAM [ALK_HUMAN_1283] 1.45
YMTQEGEYLPLDQRD [KCNJ4_HUMAN_234] 0.603
KRKRLSDYALIFGMF [KCNN1_HUMAN_109] 0.843
GDDLDPNYVLSSRVR [KCRB_HUMAN_125] 0.588
ANLSEDEYASEEERN [KDM1A_HUMAN_135_YA] 1.48
DIARASAYRKGGCAM [ALK_HUMAN_1283_YA] 1.05
YEGYEGYYSQSQGDS [KHDR1_HUMAN_387] 1.05
AEGAEGAYSQSQGDS [KHDR1_HUMAN_387_YA] 0.778
GAAREHPYGRAGGGG [KHDR1_HUMAN_440_YA] 1.29
GFGDRNEYGSRIGGG [KHSRP_HUMAN_317] 0.566
AARQQAAYAGQTPGP [KHSRP_HUMAN_688_YA] 0.723
MKDPTNGYYNVRAHE [KIRR1_HUMAN_605] 1.33
KDPTNGAYNVRAHED [KIRR1_HUMAN_606_YA] 0.69
VMILTYKYLQKPMYE [KIT_HUMAN_547] 2.02
TAPGAGHYEDTILKS [ALK_HUMAN_1604] 0.64
KYLQKPMYEVQWKVV [KIT_HUMAN_553] 2.39
DMKPGVSYVVPTKAD [KIT_HUMAN_730] 0.853
